TGI and GI50 data for 4 molecules are collected here from PubChem BioAssay (NCI).

Test systems include NCI-H522 lung; HOP-92 NSCLC; HL-60(TB) leukemia; OVCAR-8 ovarian; OVCAR-4 ovarian; CCRF-CEM leukemia; KM12 colon; RPMI-8226 leukemia; SNB-75 CNS; EKVX NSCLC; CAKI-1 renal; OVCAR-3 ovarian.
Common to all, as to experiment: inhibition of tumour cell growth, NCI panel, 48 h

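Results reflect a 48-hour exposure of cells in 96-well plates to compound at five concentrations. GI50: concentration for 50% inhibition of growth.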 Some entries of the source have several records that differ or are many. The list is limited to them. An entry can have further records. For part of these data: A record mostly stands for its own series of concentrations, which the source does not state; some values may only mark the edge of a range. For part of these data: Results that share an entry are repeated measurements across runs, samples, wells, individuals or studies. Records carry a tag for their origin. Letters hold for one entry only.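 Definition used: TGI = concentration required for complete inhibition of growth.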 Where only a bound is given, the exact number is not on record here.

On to `COc1cc2ncnc3c2cc1OCCCCCN(C)Cc1ccc(Br)cc1N3`, for which, in the experiment on NCI-H522 lung, the TGI was > 100 µM [sample A, 1 test] and 6.65 µM [sample B, 1 test].

In the case of `CCC1(OC(=O)CN)C(=O)OCc2c1cc1n(c2=O)Cc2cc3cc4c(cc3nc2-1)OCO4` (stereo not given), the GI50 in the experiment with HOP-92 NSCLC is 203 nM and < 10 nM; in the experiment with OVCAR-8 ovarian, > 100 µM and < 10 nM. Besides, the TGI with HOP-92 NSCLC is 16.5 µM and 345 nM; in the experiment on HL-60(TB) leukemia, 183 nM and < 10 nM; in the experiment on OVCAR-8 ovarian, > 100 µM and 380 nM; in the experiment with OVCAR-4 ovarian it was 4.55 µM and 414 nM; in the experiment with CCRF-CEM leukemia it was 202 nM and 8.83 µM; in the experiment with KM12 colon, 434 nM and > 100 µM. Besides, the TGI in the experiment on RPMI-8226 leukemia is 523 nM and > 100 µM; in the experiment on SNB-75 CNS it was 18.3 µM and < 10 nM.

As to `Cc1cnc(Nc2ccc(OCCN3CCCC3)cc2)nc1Nc1cccc(S(=O)(=O)NC(C)(C)C)c1`, the GI50 with EKVX NSCLC is 82.7 nM [sample A, 1 test] and 2.16 µM [sample B, mean of 2 tests]. For the same molecule, the TGI in the experiment with CAKI-1 renal is 382 nM [sample A, mean of 2 tests] and > 5.54 µM [sample B, mean of 2 tests].

As for `C/C(=N\NC(=S)N1CCN(c2ccccn2)CC1)c1nccs1`, the TGI in the experiment on HOP-92 NSCLC is 92.3 nM and 18.7 µM; in the experiment on OVCAR-3 ovarian, 47.8 nM [1 test] and 18.3 µM [mean of 2 tests].
